Laboratory results: PubChem BioAssay AID1240 (Sanford-Burnham Center for Chemical Genomics, 2008)
Screen size: about 50,000 compounds; about 800 (1.6%) showed an effect of 50% or more. Some of the results follow.

What follows are compounds tested against Bcl-2-like protein 10 (Homo sapiens) (UniProt Q9HD36) (assay: TR3 peptide-Bcl-B binding displacers, biochemical primary FP assay, phenotype converters (AID 1240;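 note: 0% = Bcl-B with tracer peptide and DMSO and 100% = tracer peptide lacking Bcl-B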)). Conditions: GST-Bcl-B / FITC-TR3 peptide fluorescence polarization; stronger effect = higher value; compound at 3.75 mg/L.
UniProt Q9HD36, sequence (Q9HD36 whole entry, looked up): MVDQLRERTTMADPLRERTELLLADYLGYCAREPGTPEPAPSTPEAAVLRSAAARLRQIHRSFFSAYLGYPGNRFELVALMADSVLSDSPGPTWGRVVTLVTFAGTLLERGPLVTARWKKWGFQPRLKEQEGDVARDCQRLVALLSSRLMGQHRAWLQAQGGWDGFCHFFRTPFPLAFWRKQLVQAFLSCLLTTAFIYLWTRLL

Row | SMILES | displacement [%]
1 | C=CCNC(=O)CN(c1ccccc1CC)S(C)(=O)=O | 0.6
2 | O=C(Nc1cccc(-c2nc3ccccc3s2)c1)c1ccc(-c2ccc([N+](=O)[O-])cc2)o1 | 70
3 | COc1ccc(C(=O)N/C(=C\c2ccc(-c3cccc([N+](=O)[O-])c3)o2)C(=O)NCc2ccncc2)cc1 | 9.9
4 | COc1ccc(C(NC(C)=O)c2ccc3cccnc3c2O)c(OC)c1 (centres undefined) | -15.3
5 | Cc1cccc(C=Nc2ccccc2O)c1O | 11.1
6 | Cc1ccc(OCC(=O)N2CCN(c3ccccn3)CC2)cc1 | 4.5
7 | COc1ccc(C2CC(C(F)(F)F)n3nc(C(=O)Nc4c(C)n(C)n(-c5ccccc5)c4=O)c(Cl)c3N2)cc1 (centres undefined) | 11
8 | CCOC(=O)C1=C(O)/C(=C/c2ccc(O)cc2)SC1=Nc1ccccc1 | -10
9 | O=C(c1ccccc1)N1CCN(Cc2c[nH]c3ccccc23)CC1 | -4.1
10 | CCCSc1nc2sc3c(c2c(=O)[nH]1)CCc1ccccc1-3 | -9.7
11 | CCn1c2ccccc2c2cc(NC(=O)c3cccc([N+](=O)[O-])c3C)ccc21 | -8.3
12 | Cc1sc(NC(=O)c2ccc(Cl)cc2)c(C(=O)OC(C)C)c1C | 4.2
13 | CC(=O)Nc1ccc(Oc2ccccc2)cc1 | 0.5
14 | Cc1ccc([N+](=O)[O-])cc1N/C=C/C(=O)c1ccccc1 | 4.4
15 | O=C(CCN1CCOCC1)Nc1c(-c2ccccc2)c2cc(Br)ccc2[nH]c1=O | -4.1
16 | COc1ccc(C2CC(=O)C3=C(C2)Nc2ccccc2NC3c2ccccc2C)cc1 (centres undefined) | -10
17 | C=CCc1ccccc1OCCOc1c(I)cc(/C=N/n2cnnc2)cc1OC | 1.2
18 | O=C1CCCC2=C1C(c1cccs1)Nc1ccc(C(=O)c3ccccc3)cc1N2 (centres undefined) | 31.7
19 | Cc1ccc(NC(=S)NC(=O)c2ccc(F)cc2)cc1Br | 2.4
20 | CC(C)Oc1cccc(C(=O)N2CCCC2)c1 | -12.9
21 | CCCOC(=O)c1ccc(NC(=O)c2ccc(-c3cccc(Cl)c3)o2)cc1 | -4.6
22 | C/C(=N\NS(C)(=O)=O)c1ccc(O)cc1O | 7.2

Row | SMILES | displacement [%]
23 | Cc1ccc(C)c(C(O)(c2ccccc2)c2cnc(C(C)C)n2C)c1 (centres undefined) | -1.4
24 | O=C(NN1C(=O)c2ccc(Oc3cccc([N+](=O)[O-])c3)cc2C1=O)c1ccco1 | -19.4
25 | Brc1ccccc1CN1CCN(Cc2ccccn2)CC1 | -0.7
26 | O=C(CCc1ccccc1)Nc1c[nH]c(=O)[nH]c1=O | 3.9
27 | CCCOC(=O)c1ccc(NC(=O)COc2ccc(Cl)cc2C)cc1 | 0
28 | CCOC(=O)C(NC(=O)c1ccccc1)=C1C=C(C)OC(C)=C1 | 5.6
29 | CC(C)C(NC(=O)/C=C/c1ccc2c(c1)OCO2)C(C)C | 12.9
30 | CCCNC(=O)c1c(NC(=O)c2ccccc2Cl)sc2c1CCC(C)C2 (centres undefined) | -3.3
31 | NNC(=O)C(NC(=O)c1ccc([N+](=O)[O-])cc1)C12CC3CC(CC(C3)C1)C2 (centres undefined) | 33.9
32 | CC1=C(C(=O)OC(C)C)C(c2ccc(F)c(Br)c2)CC(=O)N1 (centres undefined) | -0.5
33 | CCOc1cccc(C(=O)Nc2cc(C(F)(F)F)cc(C(F)(F)F)c2)c1 | -4.2
34 | Cc1cc(I)ccc1S(=O)(=O)NCCCN1CCOCC1 | -3.3
35 | Cn1c(=O)c(C(=O)NC2CCCC2)c(O)c2ccccc21 | -16.3
36 | O=C1/C(=C/C=C/c2ccccc2)SC(=S)N1c1cccc(C(F)(F)F)c1 | 23.8
37 | Cn1c(/C=N/c2nc3ccccc3[nH]2)nc2ccccc21 | 7.1
38 | O=Cc1ccc(/C=C2/SC(=S)N(Cc3ccccc3)C2=O)cc1 | 10.5
39 | CCCCOC(C)n1ccc(=O)[nH]c1=O (centres undefined) | 6.5
40 | COc1ccc(C(=O)Nc2ccc(I)cc2Cl)cc1 | 7.8
41 | COc1ccc(NC(=O)c2c(OC)cccc2OC)c(OC)c1 | -7.3
42 | CCOc1cc(/C=C2/SC(=S)N(c3ccccc3)C2=O)ccc1OS(=O)(=O)c1ccccc1 | 8.7
43 | CCOC(=O)c1ccc(-c2ccc(/C=C3/C(C)=C(C#N)c4nc(N)c(C#N)c(C)c43)o2)cc1 | 4.7
44 | Cc1c(Cl)cccc1N1C(=O)CC(Sc2nc3ccccc3s2)C1=O (centres undefined) | -14

Row | SMILES | displacement [%]
45 | O=C(NC(NC(=O)C(c1ccccc1)c1ccccc1)c1cccc([N+](=O)[O-])c1)C(c1ccccc1)c1ccccc1 | 0.3
46 | CC(=O)c1cccc(NC(=O)/C(=C\c2cccs2)NC(=O)c2cccs2)c1 | -17.5
47 | CCN(CC)/C(=N/OCc1ccc(Cl)cc1Cl)c1nonc1N | 10.1
48 | CCOC(=O)N/N=C(\C)Cc1ccc2c(c1)OCO2 | -4.1
49 | CC(NC(=O)C(C)N1C(=O)c2ccccc2C1=O)c1ccccc1 (centres undefined) | 2.9
50 | O=C(Nc1ccc(Cl)cc1)N1CCN(Cc2ccc3c(c2)OCO3)CC1 | -21.9
51 | COc1ccc(NC(=O)N2CCN(c3ccc(F)cc3)CC2)cc1 | 9.4
52 | CCN1C(=O)/C(=C2\SC(=S)N(c3ccccc3)C2=O)c2ccccc21 | -5.1
53 | CC(C)C(NC(=O)/C(=C\c1ccc2c(c1)OCO2)NC(=O)c1ccccc1)C(=O)O (centres undefined) | 4.4
54 | CCC1=NN2C(=N)/C(=C/c3ccc(OCc4ccccc4Cl)c(OC)c3)C(=O)N=C2S1 | 0.8
55 | CCOC(=O)C(CCOc1ccc(Cl)cc1C)C(=O)OCC | 9.2
56 | Cc1ccc(S(=O)(=O)N(CC(=O)NC(C)c2ccccc2)Cc2ccccc2)cc1 (centres undefined) | 4.5
57 | COc1cc(C=O)ccc1OCCN1CCOCC1 | -3.1
58 | O=C(c1ccc(F)cc1)c1ccc(N2CCCCCC2)cc1 | 0.6
59 | COc1ccccc1C(=O)Nc1ccc(I)cc1Cl | 10
60 | CCc1ccccc1N1C(=O)CC(Sc2nc(C)cc(C)n2)C1=O (centres undefined) | 10.8
61 | C/C(=N\N=C1\NC(=O)C(CC(=O)Nc2ccc(F)cc2)S1)C(C)(C)C (centres undefined) | -10.8
62 | CC(C)C(=O)Oc1ccc2c(=O)c(Oc3ccc(C(C)(C)C)cc3)coc2c1 | -6.4
63 | CCC(=O)c1ccc(N2CCN(CCC#N)CC2)c(F)c1 | -6.6
64 | COc1ccc2c(c1)CC/C2=N/OC(=O)c1cc(OC)c(OC)c(OC)c1 | -12.3
65 | CCOC(=O)c1c(NC(=O)C2CC=CCC2C(=O)O)sc2c1CCC(C)C2 (centres undefined) | -7.5
66 | O=C1N=C(N2CCOCC2)S/C1=C\c1cccnc1 | 26.4

Row | SMILES | displacement [%]
67 | CN(C)C=Nc1ccc2nc3c(cc2c1)[nH]c1ccccc13 | 21.6
68 | COc1cc(/C=C2/C(=O)NC(=O)N(c3cccc(C)c3)C2=O)ccc1OCCOc1ccc([N+](=O)[O-])cc1 | 23.2
69 | O=C(COc1cccc2ccccc12)Nc1ccncc1 | 11.9
70 | O=[n+]1cc(-c2ccc(Br)cc2)n([O-])c2c1CCC2 | 12.1
71 | N#Cc1cnn(-c2ccccc2)c1NC(=O)c1ccccc1F | -6.8
72 | Cc1cc(C)cc(Nc2cc(=O)n(C)c(=O)n2C)c1 | 14.2
73 | COc1ccc(-n2nc3cc(C)c(NC(=O)c4cccc(Br)c4)cc3n2)cc1 | 9.8
74 | Cc1ccc(-n2nc3cc(C)c(NC(=O)c4cccs4)cc3n2)cc1 | 1.8
75 | COc1cc(/C=C2/SC(=S)N(C)C2=O)ccc1OCc1ccc(Br)cc1 | 88.9
76 | CCOC(=O)/C=C(/C)Nc1c(C)n(C)n(-c2ccccc2)c1=O | 14.5
77 | CC1(C)CC(=O)C2=C(C1)Nc1ccccc1N(C(=O)c1ccccc1)C2c1ccc([N+](=O)[O-])o1 (centres undefined) | -0.2
78 | O=C(COc1ccccc1)N1CCCCC1 | -1.6
79 | CC(=O)Nc1cccc(NC(=O)CC(c2ccccc2)c2ccccc2)c1 | 3.9
80 | CN1C(=O)/C(=N\OC(=O)c2cccc(F)c2)c2ccccc21 | -10.7
81 | O=C(COc1ccc(Cl)cc1Cl)Nc1cc(-c2ccc(F)cc2)[nH]n1 | 13.6
82 | CC(C)(C)C1=NN(C(=O)c2ccc([N+](=O)[O-])cc2)C(O)(C(F)(F)F)C1 (centres undefined) | 11.1
83 | CC(=NC1CC1)c1c(C(F)(F)F)[nH]n(-c2nc3ccccc3s2)c1=O | -12.3
84 | COC(=O)c1ccc(N2C(=O)Cc3cc(OC)c(OC)cc3C2c2ccc(OC)cc2)cc1 (centres undefined) | -2.9
85 | COc1cc(OC)c(/C=N/Nc2ccccc2[N+](=O)[O-])cc1Br | -1.7
86 | COc1ccc(C(O)Cc2nc3ccccc3n2Cc2ccc(Cl)cc2)cc1 (centres undefined) | 3.9
87 | CC(C)CN1C(=O)/C(=C/c2ccc(O)cc2)SC1=S | -14.6
88 | CCC(Oc1ccccc1)C(=O)Nc1ccc(C)c(Cl)c1 (centres undefined) | 27.4

Row | SMILES | displacement [%]
89 | CN(C)S(=O)(=O)c1ccc(C(=O)Nc2cc(Cl)cc(Cl)c2)cc1 | 15.1
90 | O=C1NC(=O)/C(=C/c2ccccc2OCc2ccccc2Cl)S1 | 9.1
91 | Cc1ccccc1OCC(=O)Nc1cc(Sc2ccccc2)cc([N+](=O)[O-])c1 | 6.6
92 | O=C(O)CSc1nc2ccccc2c(=O)n1-c1ccccc1 | 6.2
93 | O=C(Nc1ccc(OC(F)(F)F)cc1)c1ccc(Br)cc1 | 4.8
94 | CN1CCN(C(=O)c2cc(-c3ccccc3)nc3ccccc23)CC1 | 6.3
95 | CCC1CCc2c(sc(NC(=O)c3c(Cl)cccc3Cl)c2C(N)=O)C1 (centres undefined) | 5.8
96 | CC(=O)/C(C(=Nc1ccccc1)Nc1ccccc1)=C(/O)c1ccccc1 | 3.8
97 | COc1cccc(/C=N/Nc2nc(-c3ccc(C)cc3)nc3ccccc23)c1O | 3.4
98 | C=CCNC(=O)/C=C/c1ccc(OCC)c(OC)c1 | 0.6
99 | Cc1cccc(NC(=O)C2C3C=CC(C3)C2C(=O)O)n1 (centres undefined) | 8.4
100 | Nc1cccc(C(=O)Nc2ccc(N)cc2Cl)c1 | 5.3
101 | CCOc1cc(/C=C2\SC(=S)N(c3cccc(C)c3)C2=O)ccc1O | 7.4
102 | O=C(/C=C\Nc1ccc2c(c1)OCO2)c1ccc2c(c1)OCO2 | 104
103 | Cc1occc1C(=O)N/N=C/c1ccc(O)cc1O | 78.5
104 | CC(C)(C)OC(=O)NC(Cc1c[nH]c2ccccc12)C(=O)N1CCOCC1 (centres undefined) | -21.6
105 | COc1ccc([N+](=O)[O-])cc1-c1ccc(/C=N\Nc2ccc([N+](=O)[O-])cn2)o1 | -5.4
106 | Cc1ccc(N2CC(C(=O)Nc3cccc(C)c3)CC2=O)cc1 (centres undefined) | -6.3
107 | Cn1ccnc1SCC(=O)c1ccc(O)c(O)c1 | 3.5
108 | Cc1cccc(Nc2nc3c(s2)CCCC3)c1 | 6.1
109 | O=C1c2ccc([N+](=O)[O-])cc2C(=O)N1c1ccc(Cl)cn1 | -2.3
